# The supplement of paper PMC8728848
# Some of the results follow.
# B1: AAL (Aleuria aurantia), P18891 (protein)
# chain: PTEFLYTSKIAAISWAATGGRQQRVYFQDLNGKIREAQRGGDNPWTGGSSQNVIGEAKLFSPLAAVTWKSAQGIQIRVYCVNKDNILSEFVYDGSKWITGQLGSVGVKVGSNSKLAALQWGGSESAPPNIRVYYQKSNGSGSSIHEYVWSGKWTAGASFGSTVPGTGIGATAIGPGRLRIYYQATDNKIREHCWDSNSWYVGGFSASASAGVSIAAISWGSTPNIRVYWQKGREELYEAAYGGSWNTPGQIKDASRPTPSLPDTFIAANSSGNIDISVFFQASGVSLQQWQWISGKGWSIGAVVPTGTPAGW
# Experiments:
# Test in all cases: glycan array binding signal (z-score within array); higher = stronger binding
# Settings in all cases: glycan notation: IUPAC condensed, linker removed
# Gal6S(b1-3)GlcNAc = molecular target: Gal6S(b1-3)GlcNAc
# Procedure, shortened: (§1)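 Glycan array data were curated from 3228 arrays in the Consortium for Functional Glycomics database and kept only where the protein sequence was available. Glycan names were converted to IUPAC-condensed notation, and columns mapping to the same glycan were averaged. The binding signal is a within-array Z-score, averaged across arrays of the same protein sequence at different concentrations or buffers and across linkers. Negative Z-scores can be read as non-binding.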
# Gal6S(b1-3)GlcNAc6S = molecular target: Gal6S(b1-3)GlcNAc6S
# Procedure, shortened: as §1
# Gal6S(b1-4)Glc = molecular target: Gal6S(b1-4)Glc
# Procedure, shortened: as §1
# Gal6S(b1-4)Glc6S = molecular target: Gal6S(b1-4)Glc6S
# Procedure, shortened: as §1
# Gal6S(b1-4)GlcNAc = molecular target: Gal6S(b1-4)GlcNAc
# Procedure, shortened: as §1
# Gal6S(b1-4)GlcNAc6S = molecular target: Gal6S(b1-4)GlcNAc6S
# Procedure, shortened: as §1
# GalNAc(a1-3)Gal = molecular target: GalNAc(a1-3)Gal
# Procedure, shortened: as §1
# GalNAc(a1-3)GalNAc = molecular target: GalNAc(a1-3)GalNAc
# Procedure, shortened: as §1
# [1] = molecular target: GalNAc(a1-3)GalNAc(a1-3)Gal(a1-4)Gal(b1-4)GlcNAc
# Procedure, shortened: as §1
# [2] = molecular target: GalNAc(a1-3)GalNAc(b1-3)Gal(a1-4)Gal(b1-4)Glc
# Procedure, shortened: as §1
# GalNAc(b1-3)Gal = molecular target: GalNAc(b1-3)Gal
# Procedure, shortened: as §1
# [3] = molecular target: GalNAc(b1-3)Gal(a1-4)Gal(b1-4)GlcNAc
# Procedure, shortened: as §1
# [4] = molecular target: GalNAc(b1-3)Gal(a1-4)Gal(b1-4)GlcNAc(b1-3)Gal(b1-4)Glc
# Procedure, shortened: as §1
# [5] = molecular target: GalNAc(b1-3)Gal(a1-6)Gal(b1-4)Glc
# Procedure, shortened: as §1
# GalNAc(b1-3)GalNAc = molecular target: GalNAc(b1-3)GalNAc
# Procedure, shortened: as §1
# GalNAc(b1-4)GlcNAc = molecular target: GalNAc(b1-4)GlcNAc
# Procedure, shortened: as §1
# [6] = molecular target: GalNAc(b1-4)GlcNAc(b1-2)Man(a1-3)[GalNAc(b1-4)GlcNAc(b1-2)Man(a1-6)]Man(b1-4)GlcNAc(b1-4)GlcNAc
# Procedure, shortened: as §1
# GalNAc(b1-6)GalNAc = molecular target: GalNAc(b1-6)GalNAc
# Procedure, shortened: as §1
# Glc(a1-4)Glc = molecular target: Glc(a1-4)Glc
# Procedure, shortened: as §1
# Glc(a1-6)Glc(a1-6)Glc = molecular target: Glc(a1-6)Glc(a1-6)Glc
# Procedure, shortened: as §1
# Glc(b1-4)Glc = molecular target: Glc(b1-4)Glc
# Procedure, shortened: as §1
# Glc(b1-6)Glc = molecular target: Glc(b1-6)Glc
# Procedure, shortened: as §1
# GlcA(b1-3)Gal = molecular target: GlcA(b1-3)Gal
# Procedure, shortened: as §1
# GlcA(b1-3)GlcNAc = molecular target: GlcA(b1-3)GlcNAc
# Procedure, shortened: as §1
# GlcA(b1-6)Gal = molecular target: GlcA(b1-6)Gal
# Procedure, shortened: as §1
# [7] = molecular target: GlcNAc(a1-3)Gal(b1-4)GlcNAc
# Procedure, shortened: as §1
# [8] = molecular target: GlcNAc(a1-4)Gal(b1-3)GlcNAc
# Procedure, shortened: as §1
# [9] = molecular target: GlcNAc(a1-4)Gal(b1-4)GalNAc
# Procedure, shortened: as §1
# [10] = molecular target: GlcNAc(a1-4)Gal(b1-4)GlcNAc
# Procedure, shortened: as §1
# [11] = molecular target: GlcNAc(a1-4)Gal(b1-4)GlcNAc(b1-3)Gal(b1-4)Glc
# Procedure, shortened: as §1
# [12] = molecular target: GlcNAc(a1-4)Gal(b1-4)GlcNAc(b1-3)Gal(b1-4)GlcNAc
# Procedure, shortened: as §1
# [13] = molecular target: GlcNAc(a1-4)Gal(b1-4)GlcNAc(b1-3)Gal(b1-4)GlcNAc(b1-3)Gal(b1-4)GlcNAc
# Procedure, shortened: as §1
# [14] = molecular target: GlcNAc(a1-4)Gal(b1-4)GlcNAc(b1-3)Gal(b1-4)[Fuc(a1-3)]GlcNAc(b1-3)Gal(b1-4)[Fuc(a1-3)]GlcNAc
# Procedure, shortened: as §1
# [15] = molecular target: GlcNAc(a1-6)Gal(b1-4)GlcNAc
# Procedure, shortened: as §1
# [16] = molecular target: GlcNAc(b1-2)Gal(b1-3)GalNAc
# Procedure, shortened: as §1
# [17] = molecular target: GlcNAc(b1-2)Gal(b1-3)GlcNAc
# Procedure, shortened: as §1
# [18] = molecular target: GlcNAc(b1-2)Man(a1-3)[GlcNAc(b1-2)Man(a1-6)]Man(b1-4)GlcNAc(b1-4)GlcNAc
# Procedure, shortened: as §1
# [19] = molecular target: GlcNAc(b1-2)Man(a1-3)[GlcNAc(b1-2)Man(a1-6)]Man(b1-4)GlcNAc(b1-4)[Fuc(a1-6)]GlcNAc
# Procedure, shortened: as §1
binder,measurement,setting,value
B1,glycan array binding signal (z-score),Gal6S(b1-3)GlcNAc,-0.438
same,glycan array binding signal (z-score),Gal6S(b1-3)GlcNAc6S,-0.428
same,glycan array binding signal (z-score),Gal6S(b1-4)Glc,-0.528
same,glycan array binding signal (z-score),Gal6S(b1-4)Glc6S,-0.49
same,glycan array binding signal (z-score),Gal6S(b1-4)GlcNAc,-0.506
same,glycan array binding signal (z-score),Gal6S(b1-4)GlcNAc6S,-0.425
same,glycan array binding signal (z-score),GalNAc(a1-3)Gal,-0.498
same,glycan array binding signal (z-score),GalNAc(a1-3)GalNAc,-0.512
same,glycan array binding signal (z-score),[1],-0.426
same,glycan array binding signal (z-score),[2],-0.411
same,glycan array binding signal (z-score),GalNAc(b1-3)Gal,-0.426
same,glycan array binding signal (z-score),[3],-0.519
same,glycan array binding signal (z-score),[4],-0.436
same,glycan array binding signal (z-score),[5],-0.441
same,glycan array binding signal (z-score),GalNAc(b1-3)GalNAc,-0.472
same,glycan array binding signal (z-score),GalNAc(b1-4)GlcNAc,-0.511
same,glycan array binding signal (z-score),[6],-0.426
same,glycan array binding signal (z-score),GalNAc(b1-6)GalNAc,-0.442
same,glycan array binding signal (z-score),Glc(a1-4)Glc,-0.507
same,glycan array binding signal (z-score),Glc(a1-6)Glc(a1-6)Glc,-0.512
same,glycan array binding signal (z-score),Glc(b1-4)Glc,-0.525
same,glycan array binding signal (z-score),Glc(b1-6)Glc,-0.519
same,glycan array binding signal (z-score),GlcA(b1-3)Gal,-0.495
same,glycan array binding signal (z-score),GlcA(b1-3)GlcNAc,-0.373
same,glycan array binding signal (z-score),GlcA(b1-6)Gal,-0.526
same,glycan array binding signal (z-score),[7],-0.512
same,glycan array binding signal (z-score),[8],-0.441
same,glycan array binding signal (z-score),[9],-0.432
same,glycan array binding signal (z-score),[10],-0.437
same,glycan array binding signal (z-score),[11],-0.433
same,glycan array binding signal (z-score),[12],-0.324
same,glycan array binding signal (z-score),[13],-0.435
same,glycan array binding signal (z-score),[14],1.64
same,glycan array binding signal (z-score),[15],-0.509
same,glycan array binding signal (z-score),[16],-0.486
same,glycan array binding signal (z-score),[17],-0.62
same,glycan array binding signal (z-score),[18],-0.477
same,glycan array binding signal (z-score),[19],0.427
